These results are taken from publication PMC10904810.

The chains behind the UniProt entries cited, without tags or fusion partners.
UniProt Q08999: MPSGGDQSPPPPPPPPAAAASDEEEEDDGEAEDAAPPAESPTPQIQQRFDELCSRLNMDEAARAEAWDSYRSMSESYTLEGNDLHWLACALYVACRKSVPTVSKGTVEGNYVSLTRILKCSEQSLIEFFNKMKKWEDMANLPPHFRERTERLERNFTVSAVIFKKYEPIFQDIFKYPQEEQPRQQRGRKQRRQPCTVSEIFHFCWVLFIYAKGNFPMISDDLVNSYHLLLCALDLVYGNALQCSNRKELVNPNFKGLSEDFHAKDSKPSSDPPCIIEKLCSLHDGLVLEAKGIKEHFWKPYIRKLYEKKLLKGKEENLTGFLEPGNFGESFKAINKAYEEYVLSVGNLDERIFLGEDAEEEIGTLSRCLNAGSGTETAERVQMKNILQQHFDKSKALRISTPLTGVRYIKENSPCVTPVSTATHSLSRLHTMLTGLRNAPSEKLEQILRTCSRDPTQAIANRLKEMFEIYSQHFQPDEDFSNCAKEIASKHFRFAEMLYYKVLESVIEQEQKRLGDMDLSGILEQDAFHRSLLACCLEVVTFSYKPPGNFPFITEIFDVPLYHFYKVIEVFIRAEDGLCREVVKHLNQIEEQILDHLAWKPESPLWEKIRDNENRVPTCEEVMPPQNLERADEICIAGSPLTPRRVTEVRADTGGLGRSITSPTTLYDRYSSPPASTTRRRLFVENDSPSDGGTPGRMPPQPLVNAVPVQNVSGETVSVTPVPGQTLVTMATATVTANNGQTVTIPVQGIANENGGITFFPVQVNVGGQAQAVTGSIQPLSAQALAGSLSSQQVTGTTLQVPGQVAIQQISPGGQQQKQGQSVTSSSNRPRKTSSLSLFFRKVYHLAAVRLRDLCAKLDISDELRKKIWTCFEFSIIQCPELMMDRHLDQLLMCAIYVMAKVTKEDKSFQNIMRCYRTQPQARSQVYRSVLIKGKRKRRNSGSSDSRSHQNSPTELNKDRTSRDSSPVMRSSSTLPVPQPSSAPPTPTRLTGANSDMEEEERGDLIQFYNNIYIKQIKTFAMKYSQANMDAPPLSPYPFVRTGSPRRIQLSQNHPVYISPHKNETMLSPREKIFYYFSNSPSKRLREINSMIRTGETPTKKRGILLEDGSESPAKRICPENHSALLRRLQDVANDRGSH
UniProt Q00534: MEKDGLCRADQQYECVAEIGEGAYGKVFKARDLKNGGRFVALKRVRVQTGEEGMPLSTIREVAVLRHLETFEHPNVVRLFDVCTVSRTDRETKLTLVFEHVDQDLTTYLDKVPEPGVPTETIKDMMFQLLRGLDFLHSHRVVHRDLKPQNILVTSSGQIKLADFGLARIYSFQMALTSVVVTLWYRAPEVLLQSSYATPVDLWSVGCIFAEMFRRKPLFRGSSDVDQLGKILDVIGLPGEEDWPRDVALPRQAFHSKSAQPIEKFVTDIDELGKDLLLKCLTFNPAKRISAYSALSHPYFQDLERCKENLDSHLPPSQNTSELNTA

Results are given in words; binding and its absence hold for the method and conditions named. Binding seen in cells or lysates may run through a third protein. Some binding calls cover weakened binding; strength is not graded here.

The target of assay [1] is T1, endogenous E3 ubiquitin ligase KLHL42 (human (endogenous in T24)) (UniProt Q9P2K6).
T1 sequence: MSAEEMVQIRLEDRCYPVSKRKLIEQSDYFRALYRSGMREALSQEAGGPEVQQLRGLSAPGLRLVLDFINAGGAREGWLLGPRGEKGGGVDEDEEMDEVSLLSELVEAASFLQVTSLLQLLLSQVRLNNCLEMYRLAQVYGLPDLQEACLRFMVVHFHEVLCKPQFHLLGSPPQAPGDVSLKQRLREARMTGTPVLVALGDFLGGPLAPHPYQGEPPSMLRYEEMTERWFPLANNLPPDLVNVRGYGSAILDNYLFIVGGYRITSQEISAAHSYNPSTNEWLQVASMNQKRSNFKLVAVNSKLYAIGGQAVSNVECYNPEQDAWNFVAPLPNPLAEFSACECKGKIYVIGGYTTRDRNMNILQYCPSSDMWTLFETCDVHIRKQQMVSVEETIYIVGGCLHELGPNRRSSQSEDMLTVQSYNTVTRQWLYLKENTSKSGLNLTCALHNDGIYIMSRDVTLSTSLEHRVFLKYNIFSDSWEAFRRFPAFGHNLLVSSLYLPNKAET
Briefly: co-IP; endogenous proteins in T24 cells overexpressing MYC; IP of pRB1 (Fig. 3b) and reversed IP of KLHL42 (Fig. 3c); antibody-conjugated protein A/G beads, IP buffer 50 mM Tris-HCl pH 7.4, 150 mM NaCl, 0.1% NP-40, 4 °C overnight.

The target in assay [2] is T2, endogenous pRB1 (retinoblastoma protein RB1) (human (endogenous in T24)) (UniProt P06400).
T2 sequence: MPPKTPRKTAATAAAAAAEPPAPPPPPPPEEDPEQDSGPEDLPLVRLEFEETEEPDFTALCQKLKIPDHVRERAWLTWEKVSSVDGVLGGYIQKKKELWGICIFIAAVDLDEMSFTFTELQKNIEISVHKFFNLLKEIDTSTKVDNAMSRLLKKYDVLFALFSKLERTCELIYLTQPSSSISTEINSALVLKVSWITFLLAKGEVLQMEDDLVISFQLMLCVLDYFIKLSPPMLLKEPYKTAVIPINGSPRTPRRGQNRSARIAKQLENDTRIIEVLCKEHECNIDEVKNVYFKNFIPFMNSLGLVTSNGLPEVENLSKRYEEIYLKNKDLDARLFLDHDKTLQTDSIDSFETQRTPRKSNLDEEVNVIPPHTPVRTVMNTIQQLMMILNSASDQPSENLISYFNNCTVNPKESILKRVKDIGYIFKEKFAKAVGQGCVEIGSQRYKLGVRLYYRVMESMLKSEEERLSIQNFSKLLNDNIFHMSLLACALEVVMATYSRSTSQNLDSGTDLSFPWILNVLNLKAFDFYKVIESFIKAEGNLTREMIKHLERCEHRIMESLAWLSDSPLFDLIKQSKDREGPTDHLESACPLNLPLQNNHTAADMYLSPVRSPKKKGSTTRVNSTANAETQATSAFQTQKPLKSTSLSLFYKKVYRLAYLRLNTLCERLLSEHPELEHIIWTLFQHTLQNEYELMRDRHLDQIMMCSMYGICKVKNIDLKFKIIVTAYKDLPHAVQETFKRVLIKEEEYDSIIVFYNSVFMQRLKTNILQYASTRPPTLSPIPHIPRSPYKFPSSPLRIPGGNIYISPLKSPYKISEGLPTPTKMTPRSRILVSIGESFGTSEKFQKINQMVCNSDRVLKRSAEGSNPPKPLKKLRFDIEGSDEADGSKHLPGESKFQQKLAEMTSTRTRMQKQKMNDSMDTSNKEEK
As to the kind of experiment: co-IP; ectopically expressed KLHL42 in T24 cells; IP buffer 50 mM Tris-HCl pH 7.4, 150 mM NaCl, 0.1% NP-40, 4 °C overnight (Supplementary Fig. 3a).

For assay [3], the target named is T2, endogenous pRB1 (retinoblastoma protein RB1) (human (endogenous in T24)). As to the kind of experiment: co-IP; endogenous proteins in T24 cells overexpressing MYC; IP of pRB1 (Fig. 3b) and reversed IP of KLHL42 (Fig. 3c); antibody-conjugated protein A/G beads, IP buffer 50 mM Tris-HCl pH 7.4, 150 mM NaCl, 0.1% NP-40, 4 °C overnight.

Consider RBL2/p130 (from UniProt Q08999 1-1139), for which the binding result in assay [1] is “no binding”.
The same measure, in the same setting: the value for CDK6 (from UniProt Q00534 1-326) was “no binding”.

B1: endogenous pRB1 (retinoblastoma protein RB1) (protein, UniProt P06400 1-928)
chain: MPPKTPRKTAATAAAAAAEPPAPPPPPPPEEDPEQDSGPEDLPLVRLEFEETEEPDFTALCQKLKIPDHVRERAWLTWEKVSSVDGVLGGYIQKKKELWGICIFIAAVDLDEMSFTFTELQKNIEISVHKFFNLLKEIDTSTKVDNAMSRLLKKYDVLFALFSKLERTCELIYLTQPSSSISTEINSALVLKVSWITFLLAKGEVLQMEDDLVISFQLMLCVLDYFIKLSPPMLLKEPYKTAVIPINGSPRTPRRGQNRSARIAKQLENDTRIIEVLCKEHECNIDEVKNVYFKNFIPFMNSLGLVTSNGLPEVENLSKRYEEIYLKNKDLDARLFLDHDKTLQTDSIDSFETQRTPRKSNLDEEVNVIPPHTPVRTVMNTIQQLMMILNSASDQPSENLISYFNNCTVNPKESILKRVKDIGYIFKEKFAKAVGQGCVEIGSQRYKLGVRLYYRVMESMLKSEEERLSIQNFSKLLNDNIFHMSLLACALEVVMATYSRSTSQNLDSGTDLSFPWILNVLNLKAFDFYKVIESFIKAEGNLTREMIKHLERCEHRIMESLAWLSDSPLFDLIKQSKDREGPTDHLESACPLNLPLQNNHTAADMYLSPVRSPKKKGSTTRVNSTANAETQATSAFQTQKPLKSTSLSLFYKKVYRLAYLRLNTLCERLLSEHPELEHIIWTLFQHTLQNEYELMRDRHLDQIMMCSMYGICKVKNIDLKFKIIVTAYKDLPHAVQETFKRVLIKEEEYDSIIVFYNSVFMQRLKTNILQYASTRPPTLSPIPHIPRSPYKFPSSPLRIPGGNIYISPLKSPYKISEGLPTPTKMTPRSRILVSIGESFGTSEKFQKINQMVCNSDRVLKRSAEGSNPPKPLKKLRFDIEGSDEADGSKHLPGESKFQQKLAEMTSTRTRMQKQKMNDSMDTSNKEEK
For B1, in assay [1], the binding result was “binds”.

B2: ectopically expressed KLHL42 (protein, UniProt Q9P2K6 1-505)
chain: MSAEEMVQIRLEDRCYPVSKRKLIEQSDYFRALYRSGMREALSQEAGGPEVQQLRGLSAPGLRLVLDFINAGGAREGWLLGPRGEKGGGVDEDEEMDEVSLLSELVEAASFLQVTSLLQLLLSQVRLNNCLEMYRLAQVYGLPDLQEACLRFMVVHFHEVLCKPQFHLLGSPPQAPGDVSLKQRLREARMTGTPVLVALGDFLGGPLAPHPYQGEPPSMLRYEEMTERWFPLANNLPPDLVNVRGYGSAILDNYLFIVGGYRITSQEISAAHSYNPSTNEWLQVASMNQKRSNFKLVAVNSKLYAIGGQAVSNVECYNPEQDAWNFVAPLPNPLAEFSACECKGKIYVIGGYTTRDRNMNILQYCPSSDMWTLFETCDVHIRKQQMVSVEETIYIVGGCLHELGPNRRSSQSEDMLTVQSYNTVTRQWLYLKENTSKSGLNLTCALHNDGIYIMSRDVTLSTSLEHRVFLKYNIFSDSWEAFRRFPAFGHNLLVSSLYLPNKAET
Regarding B2, the binding result in assay [2] is given as “binds”.

B3: endogenous E3 ubiquitin ligase KLHL42 (protein, UniProt Q9P2K6 1-505)
chain: MSAEEMVQIRLEDRCYPVSKRKLIEQSDYFRALYRSGMREALSQEAGGPEVQQLRGLSAPGLRLVLDFINAGGAREGWLLGPRGEKGGGVDEDEEMDEVSLLSELVEAASFLQVTSLLQLLLSQVRLNNCLEMYRLAQVYGLPDLQEACLRFMVVHFHEVLCKPQFHLLGSPPQAPGDVSLKQRLREARMTGTPVLVALGDFLGGPLAPHPYQGEPPSMLRYEEMTERWFPLANNLPPDLVNVRGYGSAILDNYLFIVGGYRITSQEISAAHSYNPSTNEWLQVASMNQKRSNFKLVAVNSKLYAIGGQAVSNVECYNPEQDAWNFVAPLPNPLAEFSACECKGKIYVIGGYTTRDRNMNILQYCPSSDMWTLFETCDVHIRKQQMVSVEETIYIVGGCLHELGPNRRSSQSEDMLTVQSYNTVTRQWLYLKENTSKSGLNLTCALHNDGIYIMSRDVTLSTSLEHRVFLKYNIFSDSWEAFRRFPAFGHNLLVSSLYLPNKAET
With B3, the binding entry in assay [3] is listed as “binds”.

B4: RBL1/p107 (protein, UniProt P28749 1-1068)
chain: MFEDKPHAEGAAVVAAAGEALQALCQELNLDEGSAAEALDDFTAIRGNYSLEGEVTHWLACSLYVACRKSIIPTVGKGIMEGNCVSLTRILRSAKLSLIQFFSKMKKWMDMSNLPQEFRERIERLERNFEVSTVIFKKYEPIFLDIFQNPYEEPPKLPRSRKQRRIPCSVKDLFNFCWTLFVYTKGNFRMIGDDLVNSYHLLLCCLDLIFANAIMCPNRQDLLNPSFKGLPSDFHTADFTASEEPPCIIAVLCELHDGLLVEAKGIKEHYFKPYISKLFDRKILKGECLLDLSSFTDNSKAVNKEYEEYVLTVGDFDERIFLGADAEEEIGTPRKFTRDTPLGKLTAQANVEYNLQQHFEKKRSFAPSTPLTGRRYLREKEAVITPVASATQSVSRLQSIVAGLKNAPSDQLINIFESCVRNPVENIMKILKGIGETFCQHYTQSTDEQPGSHIDFAVNRLKLAEILYYKILETVMVQETRRLHGMDMSVLLEQDIFHRSLMACCLEIVLFAYSSPRTFPWIIEVLNLQPFYFYKVIEVVIRSEEGLSRDMVKHLNSIEEQILESLAWSHDSALWEALQVSANKVPTCEEVIFPNNFETGNGGNVQGHLPLMPMSPLMHPRVKEVRTDSGSLRRDMQPLSPISVHERYSSPTAGSAKRRLFGEDPPKEMLMDKIITEGTKLKIAPSSSITAENVSILPGQTLLTMATAPVTGTTGHKVTIPLHGVANDAGEITLIPLSMNTNQESKVKSPVSLTAHSLIGASPKQTNLTKAQEVHSTGINRPKRTGSLALFYRKVYHLASVRLRDLCLKLDVSNELRRKIWTCFEFTLVHCPDLMKDRHLDQLLLCAFYIMAKVTKEERTFQEIMKSYRNQPQANSHVYRSVLLKSIPREVVAYNKNINDDFEMIDCDLEDATKTPDCSSGPVKEERGDLIKFYNTIYVGRVKSFALKYDLANQDHMMDAPPLSPFPHIKQQPGSPRRISQQHSIYISPHKNGSGLTPRSALLYKFNGSPSKSLKDINNMIRQGEQRTKKRVIAIDSDAESPAKRVCQENDDVLLKRLQDVVSERANH
On to B4, for which, in assay [1], the binding result is on record as “no binding”.
